No constants are given. Whether binding was seen depends on the method and setting. Binding seen in cells or lysates may run through a third protein. Some results given as binding are weak or reduced against the parent protein; the word gives no strength. For some assays here: Where a sequence is shown, tags or fusion partners need not be part of it.
Legend:
[1] = molecular target: T1, recombinant GST-tagged OGT (O-GlcNAc transferase) (UniProt O15294); test: pull-down; GST–OGT or GST immobilised on Glutathione Sepharose beads as bait; chromatin-bound fraction (700 µg) of asynchronous MCF7 cells as prey, overnight at 4 °C; washes in PBS with 0.1% Triton X-100, up to 150 mM NaCl more; elution with glutathione; Western blot; only the target purified
T1 sequence: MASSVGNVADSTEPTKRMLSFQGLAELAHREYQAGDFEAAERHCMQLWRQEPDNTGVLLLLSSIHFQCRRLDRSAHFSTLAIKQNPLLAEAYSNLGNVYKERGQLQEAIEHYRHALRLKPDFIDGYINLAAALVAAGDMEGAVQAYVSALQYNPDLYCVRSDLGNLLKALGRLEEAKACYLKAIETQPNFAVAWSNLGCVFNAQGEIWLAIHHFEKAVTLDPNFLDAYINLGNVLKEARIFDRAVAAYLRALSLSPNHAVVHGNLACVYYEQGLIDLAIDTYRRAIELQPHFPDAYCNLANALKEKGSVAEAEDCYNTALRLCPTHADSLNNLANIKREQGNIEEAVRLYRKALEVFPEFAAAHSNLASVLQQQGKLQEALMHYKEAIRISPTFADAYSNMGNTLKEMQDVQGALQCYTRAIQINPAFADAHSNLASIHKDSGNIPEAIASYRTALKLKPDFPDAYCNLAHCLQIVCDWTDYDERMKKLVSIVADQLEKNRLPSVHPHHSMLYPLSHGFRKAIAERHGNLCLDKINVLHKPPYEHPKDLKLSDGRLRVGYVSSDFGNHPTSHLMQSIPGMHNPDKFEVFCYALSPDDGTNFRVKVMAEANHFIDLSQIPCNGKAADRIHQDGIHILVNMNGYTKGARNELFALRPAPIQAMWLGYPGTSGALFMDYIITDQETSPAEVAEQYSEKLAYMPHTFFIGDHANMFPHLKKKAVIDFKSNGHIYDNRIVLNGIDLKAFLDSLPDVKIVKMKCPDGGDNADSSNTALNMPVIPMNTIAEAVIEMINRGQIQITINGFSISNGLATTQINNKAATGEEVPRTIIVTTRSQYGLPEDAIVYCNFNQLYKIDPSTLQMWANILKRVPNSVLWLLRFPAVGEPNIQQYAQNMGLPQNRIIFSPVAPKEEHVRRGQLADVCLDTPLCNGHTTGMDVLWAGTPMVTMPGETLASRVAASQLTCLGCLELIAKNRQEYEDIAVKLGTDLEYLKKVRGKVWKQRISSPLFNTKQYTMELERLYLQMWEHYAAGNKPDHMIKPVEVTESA

[2] = molecular target: T2, endogenous OGT (O-GlcNAc transferase) (human (endogenous in MCF7)) (UniProt O15294); test: proximity ligation; in situ PLA (Duolink) in fixed asynchronous MCF7 cells, permeabilised 2 min with 0.5% Triton X-100 in PBS; endogenous OGT and MCM; controls with only one primary antibody
T2 sequence: T1 sequence

[3] = molecular target: T1, recombinant GST-tagged OGT (O-GlcNAc transferase); test: pull-down; GST–OGT or GST immobilised on Glutathione Sepharose beads; soluble and chromatin-bound fractions of asynchronous MDA-MB-231 cells; Western blot; only the target purified
[4] = molecular target: T3, HA-tagged OGT (UniProt O15294); test: co-IP; whole cell extracts of HEK293T cells transiently transfected with HA-OGT; immunoprecipitation of either OGT or MCM subunits; buffers without SDS, one wash with 300 mM NaCl; Western blot
T3 sequence: T1 sequence

[5] = molecular target: T1, recombinant GST-tagged OGT (O-GlcNAc transferase); test: pull-down; GST–OGT or GST immobilised on Glutathione Sepharose beads as bait; soluble nucleocytoplasmic fraction (700 µg) of asynchronous MCF7 cells as prey, overnight at 4 °C; washes in PBS with 0.1% Triton X-100, up to 150 mM NaCl more; elution with glutathione; Western blot; only the target purified

Measured: binding

B1: minichromosome maintenance protein MCM3 (protein, UniProt P25205 1-808)
chain: MAGTVVLDDVELREAQRDYLDFLDDEEDQGIYQSKVRELISDNQYRLIVNVNDLRRKNEKRANRLLNNAFEELVAFQRALKDFVASIDATYAKQYEEFYVGLEGSFGSKHVSPRTLTSCFLSCVVCVEGIVTKCSLVRPKVVRSVHYCPATKKTIERRYSDLTTLVAFPSSSVYPTKDEENNPLETEYGLSVYKDHQTITIQEMPEKAPAGQLPRSVDVILDDDLVDKAKPGDRVQVVGTYRCLPGKKGGYTSGTFRTVLIACNVKQMSKDAQPSFSAEDIAKIKKFSKTRSKDIFDQLAKSLAPSIHGHDYVKKAILCLLLGGVERDLENGSHIRGDINILLIGDPSVAKSQLLRYVLCTAPRAIPTTGRGSSGVGLTAAVTTDQETGERRLEAGAMVLADRGVVCIDEFDKMSDMDRTAIHEVMEQGRVTIAKAGIHARLNARCSVLAAANPVYGRYDQYKTPMENIGLQDSLLSRFDLLFIMLDQMDPEQDREISDHVLRMHRYRAPGEQDGDAMPLGSAVDILATDDPNFSQEDQQDTQIYEKHDNLLHGTKKKKEKMVSAAFMKKYIHVAKIIKPVLTQESATYIAEEYSRLRSQDSMSSDTARTSPVTARTLETLIRLATAHAKARMSKTVDLQDAEEAVELVQYAYFKKVLEKEKKRKKRSEDESETEDEEEKSQEDQEQKRKRRKTRQPDAKDGDSYDPYDFSDTEEEMPQVHTPKTADSQETKESQKVELSESRLKAFKVALLDVFREAHAQSIGMNRLTESINRDSEEPFSSVEIQAALSKMQDDNQVMVSEGIIFLI
binds: [1] | [2] | [3] | [4] | [5]

B2: minichromosome maintenance protein MCM5 (protein, UniProt P33992 1-734)
chain: MSGFDDPGIFYSDSFGGDAQADEGQARKSQLQRRFKEFLRQYRVGTDRTGFTFKYRDELKRHYNLGEYWIEVEMEDLASFDEDLADYLYKQPAEHLQLLEEAAKEVADEVTRPRPSGEEVLQDIQVMLKSDASPSSIRSLKSDMMSHLVKIPGIIIAASAVRAKATRISIQCRSCRNTLTNIAMRPGLEGYALPRKCNTDQAGRPKCPLDPYFIMPDKCKCVDFQTLKLQELPDAVPHGEMPRHMQLYCDRYLCDKVVPGNRVTIMGIYSIKKFGLTTSRGRDRVGVGIRSSYIRVLGIQVDTDGSGRSFAGAVSPQEEEEFRRLAALPNVYEVISKSIAPSIFGGTDMKKAIACLLFGGSRKRLPDGLTRRGDINLLMLGDPGTAKSQLLKFVEKCSPIGVYTSGKGSSAAGLTASVMRDPSSRNFIMEGGAMVLADGGVVCIDEFDKMREDDRVAIHEAMEQQTISIAKAGITTTLNSRCSVLAAANSVFGRWDETKGEDNIDFMPTILSRFDMIFIVKDEHNEERDVMLAKHVITLHVSALTQTQAVEGEIDLAKLKKFIAYCRVKCGPRLSAEAAEKLKNRYIIMRSGARQHERDSDRRSSIPITVRQLEAIVRIAEALSKMKLQPFATEADVEEALRLFQVSTLDAALSGTLSGVEGFTSQEDQEMLSRIEKQLKRRFAIGSQVSEHSIIKDFTKQKYPEHAIHKVLQLMLRRGEIQHRMQRKVLYRLK
binds: [1] | [3] | [5]
